Assay [1] addresses West Nile virus strain USA99b (strain 385-99), whole virus (West Nile virus strain 385-99 (USA99b)). Nature of the assay: phage ELISA on coated whole inactivated WNV. A general note: ELISA stands for enzyme-linked immunosorbent assay.
For assay [2] the target is unchanged. Nature of the assay: ELISA on irradiated WNV; IgG1 at 0.160 µg/ml.
Assay [3] shares this target. The experiment in a line: ELISA on irradiated WNV; IgG1 at 2.500 µg/ml.
Assay [4] has the same target. The experiment in a line: cell-based or functional assay.
For assay [5] the target is unchanged. The experiment in a line: ELISA on irradiated WNV; IgG1 at 0.310 µg/ml.
For assay [6] the target is unchanged. The experiment in a line: ELISA on irradiated WNV; IgG1 at 0.039 µg/ml.
Assay [7] has the same target. The experiment in a line: ELISA on irradiated WNV; IgG1 at 20.000 µg/ml.
For assay [8] the target is unchanged. The experiment in a line: ELISA on irradiated WNV; IgG1 at 1.250 µg/ml.
The target is the same in assay [9]. Nature of the assay: ELISA on irradiated WNV; IgG1 at 5.000 µg/ml.
For assay [10] the target is unchanged. The experiment in a line: SPR (BIAcore3000), WNV captured via immobilized CR4283, IgG injected, bivalent analyte model, average of duplicates.
Assay [11] shares this target. The experiment in a line: ELISA on irradiated WNV; IgG1 at 0.078 µg/ml.
Assay [12] has the same target. Nature of the assay: ELISA on irradiated WNV; IgG1 at 0.000 µg/ml (no antibody).
For assay [13] the target is unchanged. Nature of the assay: ELISA on irradiated WNV; IgG1 at 10.000 µg/ml.
Assay [14] has the same target. Nature of the assay: ELISA on irradiated WNV; IgG1 at 0.630 µg/ml.

B1: SC04-274 (scFv)
scFv: QVQLVQSGAEVKKPGESLKISCKGSGYSFTSYWIGWVRQMPGKGLEWMGIIYPGDSDTRYSPSFQGQVTISADRSISTAYLQWSSLKASDTAMYYCARLRGPYYDFWNGYRETHDAFNVWGQGTTVTVSSGTGGSGGTGSGTGGS[skipping about 100 residues]FGGGTKVEIKR
B1 returned an OD 492 nm in assay [1] of 0.961 OD.

B2: CR4283 (antibody)
heavy: EVQLVQSGAEVKKSGESLKISCKGSGYTFNTYWIGWVRQMPGKGLEWMGIIYPGDSDTIYSPSFQGQVTISADKSISTAYLQWSSLKASDSAMYYCARLTFRRGYSGSDSFLPPGDFDYWGQGTLVTVSSASTKGPSVFPLAPSSKSTSGGTAALGCLVKDYFPEPVTVSWNSGALTSGVHTFPAVLQSSGLYSLSSVVTVPSSSLGTQTYICNVNHKPSNTKVDKRV[skipping human IgG1 Fc]
light: DIQMTQSPSTLSASVGDRVTITCRASQSISSWLAWYQQKPGKAPNLLIYAASSLQSGVPSRFSGSGSGTDFTLTISSLQPDDSATYYCQQYNTYPLTFGTKVEIKRTVAAPSVFIFPPSDEQLKSGTASVVCLLNNFYPREAKVQWKVDNALQSGNSQESVTEQDSKDSTYSLSSTLTLSKADYEKHKVYACEVTHQGLSSPVTKSFNRGEC
Turning to B2, the OD 492 nm in [2] is 1.56 OD; in [3], 1.62 OD; in assay [5], 1.54 OD; in [6], 1.02 OD; in assay [7], 1.68 OD; in assay [8], 1.63 OD. For the same molecule, the OD 492 nm is 1.76 OD in assay [9]; 1.35 OD in assay [11]; 0.003 OD in [12]; 1.65 OD in assay [13]; 1.62 OD in [14]. In [4], this molecule yielded a potency in the 66% neutralizing antibody titer assay of 23.4 µg/mL. In [10], this molecule had a Kd of 0.8 nM.

Source of the values: patent US7537764.
